Test results from paper PMC4336329 (PLoS ONE, 2015).
Hit rate of the full screen: of about 310,000 compounds, about 2,200 (0.71%) showed an effect of 50% or more. The effect is printed as a negative number. The list shows a part of the results.

Biological target: human ether-à-go-go-related gene (hERG) potassium channel (human, UniProt Q12809)
Assay: primary screen, population patch clamp on CHO cells stably expressing hERG

human ether-à-go-go-related gene (hERG) potassium channel, sequence (Q12809 whole entry, looked up): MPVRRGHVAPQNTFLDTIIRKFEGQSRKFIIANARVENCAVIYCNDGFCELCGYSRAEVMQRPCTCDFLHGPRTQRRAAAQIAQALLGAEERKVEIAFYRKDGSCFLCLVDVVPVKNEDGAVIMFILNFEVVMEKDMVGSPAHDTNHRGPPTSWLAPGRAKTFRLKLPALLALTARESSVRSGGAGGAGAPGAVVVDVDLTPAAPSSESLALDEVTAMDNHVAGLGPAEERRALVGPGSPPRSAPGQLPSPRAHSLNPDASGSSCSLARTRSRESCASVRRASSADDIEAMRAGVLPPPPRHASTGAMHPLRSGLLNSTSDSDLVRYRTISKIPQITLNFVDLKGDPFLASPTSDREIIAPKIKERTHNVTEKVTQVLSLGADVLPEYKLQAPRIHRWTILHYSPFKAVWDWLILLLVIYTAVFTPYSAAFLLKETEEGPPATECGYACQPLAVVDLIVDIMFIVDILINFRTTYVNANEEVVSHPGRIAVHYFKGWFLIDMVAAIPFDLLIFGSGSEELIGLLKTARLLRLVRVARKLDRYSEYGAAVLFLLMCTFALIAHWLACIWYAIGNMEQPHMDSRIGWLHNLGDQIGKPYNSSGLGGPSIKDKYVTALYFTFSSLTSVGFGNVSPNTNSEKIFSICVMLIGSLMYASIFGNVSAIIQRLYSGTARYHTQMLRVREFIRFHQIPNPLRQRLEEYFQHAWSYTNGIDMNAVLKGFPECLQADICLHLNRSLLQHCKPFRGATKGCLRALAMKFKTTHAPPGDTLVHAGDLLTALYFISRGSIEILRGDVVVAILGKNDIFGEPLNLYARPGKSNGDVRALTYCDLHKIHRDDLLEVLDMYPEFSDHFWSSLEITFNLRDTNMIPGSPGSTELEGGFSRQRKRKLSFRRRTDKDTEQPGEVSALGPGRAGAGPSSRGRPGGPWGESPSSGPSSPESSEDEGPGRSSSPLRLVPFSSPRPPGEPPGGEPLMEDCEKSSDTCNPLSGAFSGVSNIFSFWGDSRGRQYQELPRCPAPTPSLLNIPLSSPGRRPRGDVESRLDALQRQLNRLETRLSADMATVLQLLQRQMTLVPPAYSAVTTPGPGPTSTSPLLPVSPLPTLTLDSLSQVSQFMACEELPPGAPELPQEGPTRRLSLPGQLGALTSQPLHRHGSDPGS

| Compound | hERG current change (%, negative = inhibition) at 1uM |
| --- | --- |
| CCOc1ccc(C2Nc3ccc4ccccc4c3-c3c2c(=O)oc2ccccc32)cc1 (stereo not shown) | -0.571% |
| COC(=O)[C@@H]1C[C@@]2(O)[C@@H](O)[C@@H](O)[C@@H](O)C[C@H]2N1Cc1ccc(Cl)cc1 | 15.5% |
| COc1ccc(NC(=O)Cn2cc(S(=O)(=O)Cc3ccccc3)c3ccccc32)c(OC)c1 | 10.2% |
| C=CCn1c(=NC(=O)c2ccco2)sc2cc(C(=O)OCC)ccc21 | 3.37% |
| COC(=O)CSc1n[nH]c(-c2cccnc2)n1 | 5.43% |
| O=C(/C=C/c1ccco1)c1ccc(NC(=O)C23CC4CC(CC(C4)C2)C3)cc1 | 7.94% |
| Cc1cccc(N(C(=O)c2snc(C(N)=O)c2N)C(C(=O)NC2CCCC2)c2ccncc2)c1 (stereo not shown) | 9.7% |
| O=C(CSC1=NS(=O)(=O)c2cc(F)ccc2N1)Nc1ccc(F)cc1 | 11.8% |
| O=C(Nc1ccc(Cl)cc1)NN1CC(=O)N(c2cccc(C(F)(F)F)c2)CC1=O | 21.4% |
| CC(C)=C1C2C=CC1C(C(=O)Nc1cc(C)ccc1C)C2C(=O)O (stereo not shown) | 9.83% |
| CC(=O)Nc1ccc(NC(=O)C(C)OC(=O)COc2ccc(Nc3ccccc3)cc2)cc1 (stereo not shown) | 15.6% |
| O=C(COC(=O)c1ccccc1Br)Nc1cc(S(=O)(=O)N2CCOCC2)ccc1N1CCCC1 | 17.8% |
| COc1ccc(N2CCN(C(=O)C3COc4ccccc4O3)CC2)cc1 (stereo not shown) | 0.903% |
| COc1ccccc1C(=O)NC(=O)COC(=O)Cc1n[nH]c(=O)c2ccccc12 | 3.95% |
| CCc1cccc(CC)c1NC(=O)c1cccc(N)c1 | -0.176% |
| Cc1ccc(/C=N/NC(=O)Cn2nnc(N)n2)o1 | -0.222% |
| COc1ccc(OCC(=O)N/N=C2\CCc3ccccc32)cc1 | 1.57% |
| CCCCc1nnc(NC(=O)C2CC(=O)N(Cc3ccccc3)C2)s1 (stereo not shown) | -1.8% |
| O=C(CCCc1ccccc1)NCc1cn2ccsc2n1 | 4.27% |
| Cc1cc(C)n(CC2CC(=O)N(c3ccc(Cl)cc3)C2=O)n1 (stereo not shown) | 11.8% |
| NS(=O)(=O)c1ccc(N2N=C(c3ccccc3)CC2c2ccc(F)cc2)cc1 (stereo not shown) | 10.9% |
| O=C(CN1CCN(c2ccc(O)cc2)CC1)Nc1cc(S(=O)(=O)N2CCCC2)ccc1Cl | 11% |

| Compound | hERG current change (%, negative = inhibition) at 1uM |
| --- | --- |
| Cn1c(=O)c2cc(S(=O)(=O)NC(C(=O)NCc3ccccn3)c3ccccc3)ccc2n(C)c1=O (stereo not shown) | 10.6% |
| NC(=O)CSc1nc2ccccc2c(=O)n1Cc1ccccc1 | 13.2% |
| CCCCCCCCC1CC(C(=O)Nc2ccccc2)C(=O)O1 (stereo not shown) | 10.3% |
| C=CCn1c(SCc2cc(=O)n3cc(C)ccc3n2)nnc1-c1ccc(F)cc1 | 4.2% |
| Cn1c(=O)c(C(=O)c2ccccc2)c(O)c2ccccc21 | 11.7% |
| CCS(=O)(=O)N1CCCC(C(=O)N2CCC3(CC2)OCCO3)C1 (stereo not shown) | 8.11% |
| CSC(=S)N(C)C1CCS(=O)(=O)C1 (stereo not shown) | 6.92% |
| CCOc1ccccc1N1CCN(C(=O)c2cc3c(C)cc(C)cc3[nH]2)CC1 | 6.92% |
| O=C(c1ccc([N+](=O)[O-])o1)N1CCN(c2nc3c(F)cc(F)cc3s2)CC1 | -35.3% |
| COc1cccc(C2(O)C(=O)Nc3ccccc32)c1 (stereo not shown) | 8.86% |
| O=C(Nc1ccccc1)c1ccc(-c2ccccc2)s1 | 24.6% |
| O=C(C1=C(O)C(=O)N(CCN2CCOCC2)C1c1ccco1)c1cc2ccccc2o1 (stereo not shown) | 7.58% |
| COc1ccc(C(C(=O)NCC2CCCO2)N(C(=O)CNC(=O)c2cccs2)c2ccccc2C)cc1OC (stereo not shown) | 15.6% |
| COc1ccc(S(=O)(=O)N(C)CC(=O)N2CCOCC2)cc1Cl | 14.1% |
| O=C(NNc1ccccn1)c1ccccc1CC[N+](=O)[O-] | 10.6% |
| CCc1ccc[n+](-c2[nH]c(=O)sc2/C=N/NC([S-])=Nc2ccccc2)c1 | 3.82% |
| Cc1cc(C(=O)Nc2cccnc2)cs1 | -9.74% |
| Cc1ccc(CS(=O)(=O)CCC(=O)N2CCC3(CC2)OCCO3)cc1 | 9.02% |
| CCCCOc1ccc(S(=O)(=O)Nc2ccc(NC(C)=O)cc2)cc1 | -12.7% |
| C=CCSc1nnc(-c2cnn(-c3ccccc3)c2-n2cccc2)n1C | 4.76% |
| CCCOc1ccc(C2C(C(=O)c3ccco3)=C(O)C(=O)N2CCN2CCOCC2)cc1OC (stereo not shown) | 18.7% |
| CCOC(=O)c1cc(C#N)c(SC(C)C(=O)NC2CCCCC2)nc1C (stereo not shown) | 10.5% |

| Compound | hERG current change (%, negative = inhibition) at 1uM |
| --- | --- |
| CC(=O)Oc1cc(OC(C)=O)c2c(C)cc(=O)oc2c1 | 15% |
| Cc1ccc(CNc2cc(C(=O)O)ccc2C)s1 | 17.5% |
| O=C(CCC(=O)OCC(=O)c1ccc(Br)cc1)NC1CCCCC1 | 12.1% |
| CC(=O)Nc1sc2c(c1C(c1cccs1)N1CCOCC1)CCCC2 (stereo not shown) | 11.4% |
| COc1ccc(C(=O)NNC(=O)CSc2nnc(COc3ccc4ccccc4c3)n2C)cc1 | 9.41% |
| CCN(CC)S(=O)(=O)c1cccc(C(=O)Nc2ccc3c(c2)OCO3)c1 | -0.521% |
| CCCNc1ccc(S(=O)(=O)N(C(C)C)C(C)C)cn1 | 1.3% |
| O=C(NCc1ccccc1)c1cccc(F)c1F | 16.3% |
| COCCCn1c(=O)/c(=C\c2ccccc2OC(F)F)s/c1=C(/C#N)C(=O)NCCOC | 4.74% |
| COCCCn1c(SCC(=O)NC2CCCCC2)nnc1-c1ccncc1 | 19.2% |
| Cc1c(C(=O)O)cccc1N1C(=O)Nc2ccccc2N1O | 17.8% |
| COc1ccc(-c2nc3n(c2C)Cc2ccccc2-3)cc1 | 2.78% |
| Cc1nonc1CN(C)C(=O)CC1C(=O)NCCN1Cc1cccc(C(F)(F)F)c1 (stereo not shown) | 7.17% |
| O=C(O)/C(=C1\OC(=O)c2ccccc21)c1ccccc1 | 9.39% |
| O=C(CNc1ccc2ccccc2c1)NNC1=NCCC1 | 10.9% |
| CCOc1ccc(C2SCC(=O)Nc3c2c(C)nn3C2CCOC(C)(C)C2)cc1 (stereo not shown) | 12.3% |
| CC[N+]1=CN(c2ccccc2)C(C)=CC1(C)C.[I-] | 5.36% |
| O=C(Nc1ccc(N2C(=O)C3C4C=CC(C4)C3C2=O)cc1)Nc1nncs1 (stereo not shown) | -3.42% |
| COc1cc(C(=O)NCc2ccc(F)cc2)cc(Cl)c1OC | 12.9% |
| O=C(CN1C(=O)NC2(CCc3ccccc3C2)C1=O)Nc1ccc(Cl)cc1F (stereo not shown) | 8.99% |
| O=C(CO/N=C/c1ccccc1)Nc1c(F)c(F)c(F)c(F)c1F | 7.33% |
| COc1ccc(NC(=O)c2cccn(CC=C(C)C)c2=O)cc1 | 11.5% |

| Compound | hERG current change (%, negative = inhibition) at 1uM |
| --- | --- |
| CCCCNC(=S)NNC(=O)c1csc(C)c1CC | 15.3% |
| CCOC(=O)N=S(N)(=O)c1ccc(Cl)cc1 (stereo not shown) | 6.9% |
| O=C(N/N=C/c1ccc(Br)cc1)c1ccc(Br)o1 | 20.1% |
| Cn1c(N)c(C(=O)COC(=O)c2cncc(Br)c2)c(=O)n(C)c1=O | -2.67% |
| CCOc1ccc(S(=O)(=O)N(CC(=O)NCc2cccnc2)c2ccc(F)cc2)cc1 | -67.2% |
| CCOC(=O)C1=C(C)NC2=C(C(=O)OC2)C1c1ccccc1 (stereo not shown) | 10.2% |
| COc1cccc(NC(=S)N2CCN(C(c3ccccc3)c3ccccc3)CC2)c1 | 8.06% |
| C=CCOc1c(Br)cc(CNc2ccc(NC(=O)CCC)cc2)cc1OCC | 6.23% |
| COc1ccc(CN2CCN(C(=O)c3cc(OC)c(OC)c(OC)c3)CC2)cc1OC | 6.64% |
| Cc1cc(=O)oc(C)c1C(=O)OCC(=O)c1ccc(Br)cc1 | 9.88% |
| Br.CCN(CC)S(=O)(=O)c1cccc(-c2nc3n(n2)Cc2ccccc2-3)c1 | -1.28% |
| CC(=O)c1cccc(NC(=O)CN2C(=O)c3cccnc3Oc3ccc(Cl)cc32)c1 | 7.05% |
| Cc1cccn2c(=O)c(C=O)c(N3CCN(c4ccc(F)cc4)CC3)nc12 | -2.07% |
| Cc1ccc(C(NC(=O)C2CCCCC2)c2c(O)ccc3ccccc23)cc1 (stereo not shown) | 1.33% |
| O=C1[C@H]2[C@H](C=CC[C@H]2C(=O)N2CCN(c3ccccc3)CC2)CCN1Cc1ccc(Cl)c(Cl)c1 | 9.67% |
| CC(C)(C)C(=O)Cn1ncc(NC2CC2)c(Br)c1=O | 10.2% |
| COc1ccc2[nH]c(=O)c(CN(c3ccccc3)S(=O)(=O)c3ccccc3)cc2c1 | 12.8% |
| CCCNc1oc(-c2cccc3ccccc23)nc1C#N | 6.32% |
| O=C1CC(NC(=O)c2ccc(Cl)cc2)C(=O)N1 (stereo not shown) | 11.1% |
| CS(=O)(=O)N(Cc1ccccc1)c1ccc(C(=O)NCCSCc2ccco2)cc1 | 6.91% |
| COC(=O)c1cc(C#N)c(Oc2ccc(OC)cc2)nc1C | -6.2% |
| CN(CC(=O)Nc1ccc(F)cc1)C(=O)COC(=O)CN1C(=O)NC2(CCCC2)C1=O | 12.4% |
